In all, about 310,000 compounds went through this assay and about 2,200 (0.71%) showed an effect of 50% or more. Effects have a minus sign here. The list shows a part of the results.
Molecular target: human ether-à-go-go-related gene (hERG) potassium channel (human, UniProt Q12809)
Experiment: primary screen, population patch clamp on CHO cells stably expressing hERG

Chain of human ether-à-go-go-related gene (hERG) potassium channel (Q12809 whole entry, looked up): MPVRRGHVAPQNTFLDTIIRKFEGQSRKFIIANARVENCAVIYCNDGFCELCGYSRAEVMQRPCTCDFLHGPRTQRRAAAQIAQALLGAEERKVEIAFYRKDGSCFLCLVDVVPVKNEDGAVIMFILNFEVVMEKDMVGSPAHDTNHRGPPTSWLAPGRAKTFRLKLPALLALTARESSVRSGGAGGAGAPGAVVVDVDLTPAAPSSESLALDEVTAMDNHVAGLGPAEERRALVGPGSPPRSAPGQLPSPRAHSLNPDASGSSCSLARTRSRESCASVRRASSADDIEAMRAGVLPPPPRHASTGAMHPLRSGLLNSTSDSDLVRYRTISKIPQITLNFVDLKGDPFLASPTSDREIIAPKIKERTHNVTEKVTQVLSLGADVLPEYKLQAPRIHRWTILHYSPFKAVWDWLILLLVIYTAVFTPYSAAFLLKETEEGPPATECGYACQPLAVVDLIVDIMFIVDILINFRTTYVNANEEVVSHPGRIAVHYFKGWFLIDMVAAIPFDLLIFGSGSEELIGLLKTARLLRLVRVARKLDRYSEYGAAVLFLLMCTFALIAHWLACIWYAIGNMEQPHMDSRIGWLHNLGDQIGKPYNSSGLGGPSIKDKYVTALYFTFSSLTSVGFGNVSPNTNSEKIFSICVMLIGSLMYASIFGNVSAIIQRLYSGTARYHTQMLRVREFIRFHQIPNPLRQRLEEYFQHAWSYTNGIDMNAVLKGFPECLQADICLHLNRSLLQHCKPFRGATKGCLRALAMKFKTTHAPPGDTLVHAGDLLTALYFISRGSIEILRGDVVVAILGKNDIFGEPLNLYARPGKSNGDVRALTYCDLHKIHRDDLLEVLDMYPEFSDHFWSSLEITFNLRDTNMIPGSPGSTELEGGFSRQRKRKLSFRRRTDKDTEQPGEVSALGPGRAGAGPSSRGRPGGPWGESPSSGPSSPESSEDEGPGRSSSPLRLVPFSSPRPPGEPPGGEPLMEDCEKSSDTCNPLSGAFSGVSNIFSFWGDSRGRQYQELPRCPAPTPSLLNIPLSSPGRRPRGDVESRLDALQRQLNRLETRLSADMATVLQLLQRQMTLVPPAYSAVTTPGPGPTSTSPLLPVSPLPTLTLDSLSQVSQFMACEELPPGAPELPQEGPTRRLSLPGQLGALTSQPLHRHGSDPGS

| SMILES | hERG current change (%, negative = inhibition) at 1uM [%] |
| --- | --- |
| O=C(CCc1nnc(CCCCc2ccccc2)o1)NCCC1CCCCO1 (stereo not shown) | 9.06 |
| CCOc1ccc(/C=C2\N=C(c3cccs3)OC2=O)cc1OC | 10.2 |
| CCN1C(=O)[C@@H]2[C@H](C1=O)[C@@H]1C(=O)Nc3ccccc3C(=O)N1[C@@H]2c1cccc(C)c1 | -7.81 |
| Cc1nn(C)cc1C(C)Nc1nc2nonc2nc1N1CCCCC1 (stereo not shown) | 10.6 |
| COc1ccc(CC(=O)Nc2ccc(N3CCOCC3)cc2)cc1S(=O)(=O)N1CCOCC1 | 3.1 |
| COc1ccccc1N1CCN(C(=O)C2CCCO2)CC1 (stereo not shown) | 16.8 |
| CCC(C)CCN1C(Nc2ccccc2)=NC[C@@H]1CC(C)C (stereo partly shown) | -11.6 |
| CCCn1c(SCc2nc3ccccc3s2)n[nH]c1=O | 4.66 |
| S=C1Cc2ccccc2C(c2ccc(Cl)cc2)N1 (stereo not shown) | 5.13 |
| CCOc1cc(/C=C(\C#N)C(N)=O)ccc1OS(=O)(=O)c1ccccc1 | 2.75 |
| CCN(CC)CCCN(Cc1cc2cc3c(cc2[nH]c1=O)OCCO3)C(=O)Nc1ccccc1 | -2.3 |
| O=C(COC(=O)/C=C/c1cccc(Br)c1)NCCc1ccccc1 | 6.43 |
| COc1ccc(NC(=O)c2cccc(NC(=O)c3ccccc3)c2)cc1 | 11.4 |
| Cc1ccc(-n2cnc3c(sc4nccc(N(C)C)c43)c2=O)cc1 | 0.658 |
| Cn1c(=O)c2cc3ccccc3nc2n(C)c1=O | 13.9 |
| CC(C)c1cc(Nc2cccc(O)c2)cc(C(C)C)c1O | 11.4 |
| COc1ccc(S(=O)(=O)Nc2ccccc2C(=O)N2CCOCC2)cc1F | 13.8 |
| Cc1cccc(C(=O)Oc2ccccc2-c2nnco2)c1 | 7.77 |
| COc1ccccc1CN1CC(C(=O)N(C)Cc2ccc(C)o2)CCC1=O (stereo not shown) | 7.14 |
| O=C(NCCc1ccccc1)c1ccc(Cl)nc1 | 18 |
| O=C(O)COc1ccccc1C(Nc1ccccn1)c1cc(Cl)c2cccnc2c1O (stereo not shown) | 5.42 |
| COC(=O)c1ccc(C(=O)OC)c(NC(=O)C2CC2)c1 | -15.9 |
| CCC(C)CCN1C(Nc2ccccc2)=NC[C@@H]1C (stereo partly shown) | 7.79 |
| CCOc1ccc(NC(=O)CN(C)C(=O)c2cn3ccccc3n2)cc1OCC | -6.59 |
| Cc1ccccc1NC(=O)CSc1ccc(-c2ccccn2)nn1 | 0.969 |

Reference: paper PMC4336329 (PLoS ONE, 2015)
